Source: PubChem BioAssay AID1671194 (National Center for Advancing Translational Sciences (NCATS), 2021)
Out of some 140,000 compounds screened, about 240 (0.17%) were called active. Inconclusive results, whose numbers are uncertain, are shown with a selection of clear calls. Calls follow the shape of the dose curve; as a rule, active = well fitted inhibition curve with a large enough effect; inconclusive = small, poorly fitted or top-dose-only effect; inactive = no such curve, though single readings can be large or run the other way. Potencies of inconclusive entries are doubtful fits and often do not repeat.

Test: Primary qHTS assay for inhibitors of alpha-synuclein gene (SNCA) expression; also: nearly all actives have a fitted effect of over 45% in size
Conditions: HEK-293 SNCA-luciferase knock-in, luminescence, 24 h; series mostly up to 57.2 µM
Potency is read from the fitted curve at half-maximal effect; tags tell the direction and shape of the fitted curve.

Q: Which Potency does the source give for `CN1C(=O)CCC2(CNC(=O)Nc3ccccc3)CCC=C12` (configuration not stated) here?
A: inconclusive: 6.31 µM [inhibitor, single point]

Q: With `O=C(Nc1ccc2nc(SCC(=O)N3CCc4ccccc43)sc2c1)c1cccc(F)c1` as the compound, how does the Potency read?
A: inconclusive: 39.8 µM [inhibitor, single point]

Q: For `CN1CCN(c2ccc3ncc(Nc4cccc(C(F)(F)F)c4)n3n2)CC1`, which Potency is on record?
A: inactive

Q: Which Potency does the source give for `Cc1ccc(C(=O)Nc2ccccc2)cc1S(=O)(=O)Nc1ccc(Br)cc1` here?
A: inconclusive: 31.6 µM [inhibitor, single point]

Q: For `CCc1ccccc1NC(=O)Nc1cc(C(=O)NCc2cccc(F)c2)ccc1N1CCCC1`, which Potency is on record?
A: inconclusive: 31.6 µM [inhibitor, single point]

Q: Which Potency does the source give for `O=C(CCc1conc1-c1cccc(F)c1)NCc1ccc(F)cc1` here?
A: inconclusive: 11.2 µM [inhibitor, partial curve, poor fit]

Q: With `COc1ccc(C(C)NC(=O)CN2C(=O)NC3(CCOCC3)C2=O)cc1` (configuration not stated) as the compound, how does the Potency read?
A: inconclusive: 3.55 µM [inhibitor, full curve]

Q: For `Cc1cccc(-n2ncc(C(=O)N3CCN(Cc4ccccc4)CC3)c2C2CCN(C(=O)OC(C)(C)C)CC2)c1`, which Potency is on record?
A: inconclusive: 12.6 µM [inhibitor, partial curve, poor fit]

Q: With `CCCCn1c(=O)c(C(=O)N2CCCCC2)nc2cccnc21` as the compound, how does the Potency read?
A: inactive

Q: Which Potency does the source give for `Cc1nc2scc(CC(=O)N3CCOCC3)n2c(=O)c1-c1cc(C)n(-c2ccc(F)cc2)n1` here?
A: inactive

Q: With `COc1cccc(CN2CCCC3(CCN(Cc4ccccc4)C3)C2=O)c1OC` (configuration not stated) as the compound, how does the Potency read?
A: inactive

Q: Which Potency does the source give for `COc1ccccc1-c1cccc(-c2c(O)c3cc(C#N)c(Cl)cc3[nH]c2=O)c1` here?
A: inconclusive: 9.87 µM [inhibitor, full curve]

Q: Which Potency does the source give for `COc1cc(OC)cc(C(=O)N2CCC3(C2)NC(=O)N(Cc2ccc(Cl)cc2)C3=O)c1` (configuration not stated) here?
A: inactive

Q: For `O=c1c2c3c(nn2ccn1Cc1ccc(Cl)cc1)CCCC3`, which Potency is on record?
A: inactive

Q: For `O=C(Nc1ccc(Cl)cc1)C1CCN(S(=O)(=O)c2ccc(Br)s2)CC1`, which Potency is on record?
A: inconclusive: 35.5 µM [inhibitor, partial curve, poor fit]

Q: For `CN(C(=O)Cc1ccccn1)C1CCCc2ccccc21` (configuration not stated), which Potency is on record?
A: inconclusive: 56.2 µM [inhibitor, single point]

Q: With `O=C(c1cccc(Cl)c1)N1CCN(C(=O)c2nc3cccnc3n(C3CC3)c2=O)CC1` as the compound, how does the Potency read?
A: inactive

Q: Which Potency does the source give for `Cc1cn2nc(C(=O)Nc3ccc(Cl)c(C)c3)cc2c(N2CCSCC2)n1` here?
A: inactive

Q: For `CC(=O)Nc1ccc(S(=O)(=O)N[C@H]2CO[C@H]3[C@@H]2OC[C@@H]3Nc2nccc(C(C)(C)C)n2)cc1`, which Potency is on record?
A: inactive

Q: With `Cn1cccc1C(=O)N1CCC2(CC1)CN(Cc1ccccc1)CC2CO` (configuration not stated) as the compound, how does the Potency read?
A: inconclusive: 3.98 µM [inhibitor, single point]

Q: For `O=C1NCCCCCN(Cc2ccc(F)cc2F)[C@H]2CCC[C@@H]12`, which Potency is on record?
A: inactive

Q: For `O=C(N[C@H]1CCN2C(=O)c3cc(-c4ccccc4)ccc3NC(=O)[C@H]12)c1cccc(F)c1`, which Potency is on record?
A: inactive

Q: With `O=C(NC1CCCN(Cc2ccc(-c3cncnc3)cc2)C1)c1cccc(Cl)c1` (configuration not stated) as the compound, how does the Potency read?
A: inactive

Q: Which Potency does the source give for `COc1ccc2[nH]c3c(c2c1)CCN(C)C31CCN(C(=O)c2ccsc2)CC1` here?
A: inconclusive: 39.8 µM [inhibitor, single point]

Q: Which Potency does the source give for `O=C(C1CCCN1C(=O)Nc1ccc(Cl)cc1)N1CCC(N2CCCC2=O)CC1` (configuration not stated) here?
A: inactive

Q: With `CN(Cc1ccccc1)C(=O)C1CCN(Cc2cc3ccccc3n2Cc2ccccc2)CC1` as the compound, how does the Potency read?
A: inconclusive: 39.8 µM [inhibitor, single point]

Q: With `Cc1cccc(NC(=O)c2c(NC(=O)c3ccco3)sc3c2CCC(C(C)(C)C)C3)c1` (configuration not stated) as the compound, how does the Potency read?
A: inconclusive: 39.8 µM [inhibitor, single point]

Q: For `CCOCCOC1CCN(C(=O)c2ccccn2)CC1`, which Potency is on record?
A: inactive

Q: Which Potency does the source give for `COCC1CN(Cc2ccc(OC(F)(F)F)cc2)CC12CCNCC2` (configuration not stated) here?
A: inconclusive: 11.2 µM [inhibitor, partial curve, poor fit]

Q: For `CN1Cc2ncnc(NCCc3ccc(F)cc3)c2CN(c2ccc(Cl)cc2)C1=O`, which Potency is on record?
A: inconclusive: 6.31 µM [inhibitor, partial curve]

Q: With `CC(C)Oc1cccc2c1c(NC(=O)c1cccnn1)nn2Cc1ccccc1` as the compound, how does the Potency read?
A: inactive

Q: With `CC(C)Sc1ncc(Cl)c(C(=O)Nc2ccc(S(=O)(=O)N3CCCCC3C)cc2)n1` (configuration not stated) as the compound, how does the Potency read?
A: inconclusive: 14.1 µM [inhibitor, single point]

Q: For `O=C(NCCCc1nnc2ccccn12)C1CC(=O)N(c2n[nH]c3ccccc23)C1` (configuration not stated), which Potency is on record?
A: inconclusive: 5.01 µM [inhibitor, partial curve, poor fit]

Q: With `Cc1ccc(NC(=O)Cn2cc(S(=O)(=O)N3CCCC3)c(S(=O)(=O)N3CCCC3)c2)c(C)c1` as the compound, how does the Potency read?
A: inconclusive: 2.51 µM [inhibitor, single point]

Q: Which Potency does the source give for `O=C(Cn1ccn2nc3c(c2c1=O)CCCCC3)Nc1ccccc1F` here?
A: inconclusive: 39.8 µM [inhibitor, single point]

Q: For `CC(C)NC(=O)N1CCC(OCCOc2cccnc2)CC1`, which Potency is on record?
A: inconclusive: 1.78 µM [inhibitor, partial curve, poor fit]

Q: Which Potency does the source give for `COc1cccc(S(=O)(=O)N2CCCN(C(=O)C3CC3)C(c3ccccc3)CC(=O)NCC2)c1` (configuration not stated) here?
A: inconclusive: 15.8 µM [inhibitor, partial curve, poor fit]

Q: For `Cc1cccc(NC(=O)CSc2nc3c([nH]c4ccccc43)c(=O)n2-c2ccc(F)cc2)c1C`, which Potency is on record?
A: inactive

Q: For `Cc1cccc(OCC(=O)Nc2ccc3c(c2)N(C)C(=O)c2ccccc2S3)c1`, which Potency is on record?
A: inconclusive: 39.8 µM [inhibitor, single point]

Q: Which Potency does the source give for `CN1CC(=O)N(c2cccnc2)Cc2c1ncnc2N1CCN(c2ccccn2)CC1` here?
A: inconclusive: 1.58 µM [inhibitor, partial curve, poor fit]

Q: For `Cc1ccccc1CN1C[C@@H]2C(=O)N(Cc3ccc4c(c3)OCO4)C(=O)[C@@H]2C1`, which Potency is on record?
A: inconclusive: 14.1 µM [inhibitor, partial curve]

Q: With `COc1ccc2ccc(OCc3nc(C(=O)N4CCC(=O)NCC4C)co3)cc2c1` (configuration not stated) as the compound, how does the Potency read?
A: inconclusive: 15.8 µM [inhibitor, partial curve, poor fit]
